Data taken from PMC6212790.
The list shows a part of the results. At the low end of the ranking, values are background and their order means little.

Biological target: T1, GST-Rok-C97-191 (UniProt O34857)
T1 sequence: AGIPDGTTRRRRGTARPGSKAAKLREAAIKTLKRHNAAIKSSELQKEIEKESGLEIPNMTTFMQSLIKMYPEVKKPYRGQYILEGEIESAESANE
Assay: protein binding microarray;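 further: rank score from −0.5 (least bound) to 0.5 (best bound)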
Details: Rok is a gene silencer of Bacillus subtilis; high values mean tight binding; most listed sequences are background and not binding sites; double strand, one strand shown

Sequence | binding signal
GCCTGTCA | -0.218 E-score
CGTCGTCA | -0.193 E-score
GACGCCAA | -0.114 E-score
AAAACCCA | 0.153 E-score
CAACTAAC | 0.19 E-score
AGCTACCC | 0.025 E-score
GAATGATC | -0.126 E-score
ACATTTCT | 0.204 E-score
GGTGTAGA | 0.168 E-score
ATAGGTCG | 0.0592 E-score
AAGTAAAT | 0.359 E-score
ATGATGGC | 0.0131 E-score
AGCGCCCG | -0.232 E-score
TCCCGAGA | 0.0637 E-score
ATAGCATG | 0.213 E-score
GACTCGGA | -0.142 E-score
CGACCGAG | -0.213 E-score
ACTACGTG | -0.0355 E-score
CAAGCTAG | 0.137 E-score
ACGTTCTG | -0.103 E-score
GCTCCGCC | -0.408 E-score
CGGCATGA | -0.117 E-score
AGTCGACG | -0.108 E-score
CCGTTGTC | -0.0034 E-score
AAGCGGTC | -0.295 E-score

Sequence | binding signal
ACTCGGGA | 0.119 E-score
AGACCCTG | -0.33 E-score
ACGGGCTA | -0.105 E-score
AGCGCGAT | 0.164 E-score
ACAAAGGG | -0.073 E-score
ACACCGGA | -0.142 E-score
AGGTGATC | -0.0748 E-score
TACTTGGA | 0.134 E-score
GACCAGGA | -0.275 E-score
ACCGACCT | -0.0738 E-score
CGAGTGCA | -0.104 E-score
CAACATGC | -0.0466 E-score
AAAAGACC | -0.0611 E-score
AAGATGCC | -0.228 E-score
CATCTTTC | 0.0588 E-score
ACGCACCA | -0.186 E-score
CGTTCATA | 0.0239 E-score
ACTAATAA | 0.309 E-score
ACGATAGG | 0.157 E-score
ATGGAACA | -0.138 E-score
ACGCTATG | 0.0626 E-score
GTACATTA | 0.278 E-score
TCTCATCA | -0.0317 E-score
ATTCATTA | 0.162 E-score
AGACGTCC | -0.189 E-score

Sequence | binding signal
AGATATGG | 0.12 E-score
GCCTTCAC | 0.0337 E-score
GTCTGATA | 0.11 E-score
GCTGAAGA | -0.101 E-score
ATTCAGGC | -0.124 E-score
CATTGGGA | 0.0975 E-score
AAATTCCC | 0.117 E-score
CCGGCTCA | -0.212 E-score
CAAATGAA | 0.118 E-score
AACTCAGT | -0.168 E-score
AATCTAAG | 0.234 E-score
ACCTCTCG | 0.00338 E-score
CGACGTTC | 0.00193 E-score
GTTGAAGA | -0.125 E-score
AATGCCAC | 0.0235 E-score
AGGTCCAA | -0.283 E-score
TACAATGA | 0.112 E-score
TGTAAGAA | 0.222 E-score
CCGGGCGC | -0.132 E-score
TCGTGTAA | 0.109 E-score
AGACATAT | 0.164 E-score
TAATCCGA | 0.15 E-score
CAGCTACA | 0.0422 E-score
ACTTGCAT | 0.0108 E-score
CTGCTCAA | 0.0272 E-score

Sequence | binding signal
CATATAAA | 0.138 E-score
GGACGGCA | -0.181 E-score
TCTGTCAA | -0.116 E-score
GCGATCGC | -0.164 E-score
AGTTCACC | 0.0316 E-score
AGAGTGGG | -0.186 E-score
GACCACTC | 0.00158 E-score
GTCTGTTA | 0.0249 E-score
GGACCGAA | -0.0929 E-score
GCATCCAA | -0.0621 E-score
ACTAAACT | 0.244 E-score
CTTTCTTA | 0.192 E-score
AAAATTCG | 0.192 E-score
CACCCTCG | -0.185 E-score
GTCGCGTA | 0.147 E-score
GGGTTGTA | 0.0386 E-score
GAGGACTC | -0.0608 E-score
CAACGGTA | 0.207 E-score
GCGGTTTA | -0.00762 E-score
CTAAAGGA | -0.128 E-score
CATAGGTC | -0.00427 E-score
ACTTAATA | 0.239 E-score
ATCACGTA | 0.097 E-score
ATGCGAAT | -0.117 E-score
CAATGAGC | -0.197 E-score

Sequence | binding signal
AACTGGGA | -0.209 E-score
ACATAGAG | -0.0925 E-score
CTTCATGC | -0.0422 E-score
AGGCCCAA | -0.294 E-score
ACGATTTG | 0.0282 E-score
GTATAATA | 0.413 E-score
AAGTACTC | 0.146 E-score
ATAATTTC | 0.36 E-score
ACGGTGTG | -0.113 E-score
AATAGGCT | 0.0839 E-score
CCGGATGA | -0.00889 E-score
CCTTTCGC | -0.136 E-score
GAAGCGTC | -0.188 E-score
CCGGAGTA | 0.00891 E-score
AAGTCCTA | 0.0893 E-score
AAAGTTGT | 0.0601 E-score
CGCCGCCA | -0.235 E-score
GGAGAGCC | -0.332 E-score
CGCGGACA | -0.116 E-score
CCGTGCAC | -0.158 E-score
CAAAGCAA | 0.102 E-score
CTAAGGAG | -0.0167 E-score
CGAATCGA | -0.00685 E-score
CATGGGAG | -0.152 E-score
TTCCCCAA | 0.0499 E-score

Sequence | binding signal
AAAAGCTC | -0.0186 E-score
AAGGGGAC | -0.16 E-score
CGCGCCAG | -0.214 E-score
GTTGGTTA | 0.179 E-score
ATCTCTTA | 0.0317 E-score
CATCCGCC | -0.204 E-score
ACAGCAAG | -0.0495 E-score
AGAGTGAC | -0.024 E-score
GCTGTCGA | -0.0863 E-score
ATAGTTCC | 0.143 E-score
CTGGACCA | -0.188 E-score
AAAATGAC | 0.0327 E-score
CACCGCGG | -0.113 E-score
CACCCAGG | -0.332 E-score
ATGCAGTG | 0.023 E-score
CGCGATTC | 0.0103 E-score
GAGGATAA | 0.123 E-score
ACACTATA | 0.258 E-score
CTTTTATA | 0.236 E-score
TAGGCCTA | 0.177 E-score
AGACTAGG | -0.00307 E-score
CCGTTATA | 0.119 E-score
ATCAGGTG | 0.162 E-score
ACAGAACG | 0.0639 E-score
AGCCTCCT | -0.331 E-score

Sequence | binding signal
ACCCGAGC | 0.004 E-score
ACACAGCG | -0.0473 E-score
CACCAATG | -0.2 E-score
ACTCTGCG | 0.103 E-score
AGTTCCAG | 0.0851 E-score
GATAAACA | -0.00599 E-score
TATTGGGA | -0.0798 E-score
TACATGCA | 0.282 E-score
CTGTTCGA | 0.177 E-score
CGTGGATA | 0.0229 E-score
AAGATGTG | -0.0937 E-score
CGCGATAG | 0.188 E-score
AAGGGGTG | -0.271 E-score
CATCAGCG | -0.0549 E-score
GAACACAA | -0.0616 E-score
AAACGCCC | -0.157 E-score
CCTGATTC | -0.0645 E-score
CCATTTTA | 0.172 E-score
AAGAACGA | 0.105 E-score
CTGTAACC | -0.00734 E-score
AAGACCCA | -0.0967 E-score
CGACCCCG | -0.315 E-score
